# Laboratory results reported in the supplement of paper PMC10986608.
# This is one part of the list. Most values come without repeats; read them as rough.
# Test system: Candida albicans DPL-15
# Assay: growth (OD600) after compound treatment (apparently relative to screen median) (relative growth (fraction; screen median 1.02)); DPL-15 is a caspofungin-resistant clinical isolate; higher = more fungal growth (less antifungal activity)
# Conditions: 25 µM; RPMI 1640; 48 h; 30 °C
row,SMILES,growth
1,O=C1C2=C(C(c3ccccc3)=NCCN2)C(c2ccc(F)cc2)N1Cc1ccccc1 (stereo unspecified),0.943
2,Cc1ccccc1S(=O)(=O)N1CCCc2nc(-c3ccc(Br)cc3)ccc21,0.932
3,COc1cc(O)c(C(=O)[C@@H]2CC=C(C)C[C@H]2c2ccsc2)c(O)c1,1.06
4,COC(=O)[C@]1([C@@H]2OC(=O)C=C2C)CC(=O)c2c(O)cccc2O1,1.02
5,CC1=C[C@]23O[C@H]2C(=O)[C@H]2O[C@H]2[C@]3(O)[C@@H]2CCC3(OCCO3)[C@@]2(O[Si](C)(C)C)C1,0.89
6,CC(=O)C1=C2C=CCCN2C(=O)NC1c1ccccc1C (stereo unspecified),1.15
7,CCOC(=O)C1(C(=O)OCC)Cc2cnc(-c3ccccc3)cc2C1,1.09
8,CC1=NCCNC2=C1C(c1cccc(C(F)(F)F)c1)NC2=O (stereo unspecified),1.02
9,C=CCOc1c(C)c(C)c(C(=O)OC)c(O)c1C,1.23
10,COC(=O)c1c(O)c(C)c(O)c(C)c1O,1.01
11,CC1(C)Cc2cc3cccc4n3c2N(C1)C(=O)[C@@H]1C[C@@H](O)CN1C4=O,0.903
12,COc1cccc(N2C(=O)c3[nH]nc(CC(C)C)c3C2c2ccccc2Cl)c1 (stereo unspecified),1.05
13,COc1ccc(N2C(=O)c3[nH]nc(CC(C)C)c3C2c2ccc(Br)cc2)cc1 (stereo unspecified),0.969
14,C=CCN1C(=O)C2=C(C(C(C)C)=NCCN2)C1c1ccc(C)cc1 (stereo unspecified),1.05
15,COC(=O)c1c(-c2ccccc2)c2c(c3c4ccccc4n(S(=O)(=O)c4ccc(C)cc4)c13)C(=O)N(C)C2,1.04
16,C=CC[C@@H](O)COc1cc2c(cc1C1(c3cc4c(cc3OC[C@H](O)CC=C)OCO4)C(=O)Nc3cc(Br)ccc31)OCO2,0.985
17,CC(=O)OC[C@@H]1O[C@H](C#Cc2ccc(C(C)(C)C)cc2)C=C[C@H]1OC(C)=O,0.962
18,CC1=C(C(N)=O)C(c2ccc(Cl)cc2)NC(=O)N1 (stereo unspecified),1.1
19,COc1ccc([C@@]23Oc4cc(OC)cc(OC)c4[C@]2(O)[C@H](O)[C@H](C(=O)c2ccco2)[C@H]3c2ccccc2)cc1,0.786
20,CC(C)OC(=O)[C@H](C)NC(=O)N1CCc2nc(-c3ccccc3)c3c(c2C1)CO[C@@H](C)C3,1.1
21,CCOc1cc(N(C)C)ccc1C1CC(=O)Nc2cc3c(cc21)OCCO3 (stereo unspecified),1.2
22,CC(C)c1c2c(nn1C)C(=O)NC2c1cccc(C(F)(F)F)c1 (stereo unspecified),0.984
23,Cc1cc(C)cc(/C=C/[C@H]2c3c(C)cc(C)cc3CO[C@@H]2[C@H](O)CO)c1,0.919
24,CO[C@@H]1[C@H](O)CC[C@]2(O)CN(c3ccc4c(c3)oc3ccccc34)[C@](C)([C@H](O)CC=C(C)C)[C@@H]12,0.98
25,COC(=O)[C@]1(Cc2ccccc2)NC=C(C(=O)c2ccccc2)[C@@H]1c1cccc(C(F)(F)F)c1,1.04
26,CC(C)OC(=O)[C@H](Cc1ccccc1)N[C@H](/C=C/c1ccccc1)[C@@H](O)Cc1ccccc1,1.32

row,SMILES,growth
1,CCN1C(=S)NC(c2ccc(F)cc2)C(C(=O)OC)=C1C (stereo unspecified),0.917
2,Cn1nc(-c2ccccc2)cc1N,1.08
3,CC(C)CC1=NCCN(C)C2=C1C(c1ccc(F)cc1)N(c1ccccc1)C2=O (stereo unspecified),1.07
4,COc1ccc(Cn2nc(C(C)(C)C)cc2Nc2cc(O)cc(O)c2C(=O)N2Cc3ccccc3C2)cc1,0.973
5,COC(=O)C1=C(C)N(Cc2cccc(C(F)(F)F)c2)C(NCc2ccc(C(F)(F)F)cc2)=NC1c1ccc(Cl)cc1 (stereo unspecified),0.811
6,CNCC1CCCN(CCc2ccccc2)C1 (stereo unspecified),1.01
7,CCCCNC1=NC(c2ccccc2)C(C(=O)OC)=C(C)N1Cc1ccc(C(F)(F)F)cc1 (stereo unspecified),0.958
8,COC(=O)c1cc2c(c3c4ccccc4n(S(=O)(=O)c4ccccc4)c13)C(=O)N(Cc1cccc(F)c1)C2,1.02
9,CCCOS(=O)(=O)N(SC(=S)OCC)C(C)(C)C,1.11
10,COc1ccccc1Cn1nc2c(c1CC(C)C)C(c1ccc3c(c1)OCO3)NC2=O (stereo unspecified),0.92
11,COC(=O)[C@@H]1[C@@H](O)[C@@]2(O)c3c(OC)cc(OS(=O)(=O)c4ccc(C)cc4)cc3O[C@@]2(c2ccc(OC)cc2)[C@H]1c1ccccc1,1.09
12,Cc1nn(Cc2ccccc2)c2c1C(c1ccc3c(c1)OCO3)NC2=O (stereo unspecified),1.02
13,COc1ccc(N2C(=O)C(Nc3ccc4c(c3)OCO4)=CC2c2ccc(C(F)(F)F)cc2)cc1 (stereo unspecified),1
14,COc1ccccc1Cn1nc(CC(C)C)c2c1C(=O)NC2c1ccc(C)cc1 (stereo unspecified),0.762
15,COc1ccc(-c2ccc3c(n2)CCCN3C)cc1,1.18
16,COc1ccc(-c2ccc3c(n2)CCCN3S(=O)(=O)c2ccccc2)cc1,0.946
17,Cc1ccc(S(=O)(=O)N2CCCC3OCCCC3=C2c2ccc3c(c2)[nH]c2ccccc23)cc1 (stereo unspecified),1.04
18,Oc1c(CN2CCOCC2)cc2c(c1-c1c(O)c(CN3CCOCC3)cc3c1CCCC3)CCCC2,0.838
19,COC(=O)C1=C(C)N(C)C(NCCc2ccccn2)=NC1c1ccc(Cl)cc1 (stereo unspecified),1.11
20,CCN(CC)C(=O)c1c(O)cc(O)cc1CC(=O)C(C)C,1.08
21,O=C1c2ccccc2-c2c1c(O)c1ccccc1c2O,0.519
22,COC(=O)C1=C(C)N(CCCOC(C)C)C(=S)NC1c1ccc(C(F)(F)F)cc1 (stereo unspecified),1.09
23,CO[C@@H]1[C@H](O)CC[C@]2(O)CN(c3ccc(Oc4ccccc4)cc3)[C@](C)([C@H](O)CC=C(C)C)[C@@H]12,0.859
24,COc1ccc(N2C(=O)C3=C(C(c4ccccc4)=NCCN3C)C2c2ccc(C)cc2)cc1 (stereo unspecified),0.943
25,CN1CC2CN(C(=O)c3c(O)cc(O)cc3NC3Cc4ccccc4C3)CC2C1 (stereo unspecified),0.879
